Data: patent US20110319597A1 (CAPHALON AUSTRALIA, published 2011)

Key:
recombinant human TNFα = recombinant human TNFα (human, UniProt P01375 part only); test: cell-based or functional assay
[1] = biological target: T1, recombinant human TNFα (CytoLab) (human, UniProt P01375 part only); test: ELISA on coated human TNFα
T1 construct: coated on the ELISA plate at 1 µg/ml; also called Tumour necrosis factor alpha

Standardized EC50, L929 neutralization assay (5-point) (recombinant human TNFα): 1.54 µg/mL
A450 (AU) [1]: 1.23 AU
B3: TNFα dAb Fc variant Y49D (Fc fusion, name in Kabat numbering)
chain: DIQMTQSPSSLSASVGDRVTITCRASQAIDSYLHWYQQKPGKAPKLLIDSASNLETGVPSRFSGSGSGTDFTLTISSLLPEDFATYYCQQVVWRPFTFGQGTKVEIKRV[human IgG1 Fc with changes left out]

Standardized EC50, L929 neutralization assay (5-point) (recombinant human TNFα): 5.47 µg/mL
A450 (AU) [1]: 1.03 AU
B4: TNFα dAb Fc variant T72H (Fc fusion, name in Kabat numbering)
chain: DIQMTQSPSSLSASVGDRVTITCRASQAIDSYLHWYQQKPGKAPKLLIYSASNLETGVPSRFSGSGSGTDFHLTISSLLPEDFATYYCQQVVWRPFTFGQGTKVEIKRV[human IgG1 Fc with changes left out]

Standardized EC50, L929 neutralization assay (5-point) (recombinant human TNFα): 2.49 µg/mL
A450 (AU) [1]: 1.03 AU
B13: TNFα dAb Fc variant T69Y (Fc fusion, name in Kabat numbering)
chain: DIQMTQSPSSLSASVGDRVTITCRASQAIDSYLHWYQQKPGKAPKLLIYSASNLETGVPSRFSGSGSGYDFTLTISSLLPEDFATYYCQQVVWRPFTFGQGTKVEIKRV[human IgG1 Fc with changes left out]

Standardized EC50, L929 neutralization assay (5-point) (recombinant human TNFα): 19.6 µg/mL
A450 (AU) [1]: 0.916 AU
B14: TNFα dAb Fc variant T69A (Fc fusion, name in Kabat numbering)
chain: DIQMTQSPSSLSASVGDRVTITCRASQAIDSYLHWYQQKPGKAPKLLIYSASNLETGVPSRFSGSGSGADFTLTISSLLPEDFATYYCQQVVWRPFTFGQGTKVEIKRV[human IgG1 Fc with changes left out]

Standardized EC50, L929 neutralization assay (5-point) (recombinant human TNFα): 1.34 µg/mL
A450 (AU) [1]: 1.21 AU
B16: TNFα dAb Fc variant T69D (Fc fusion, name in Kabat numbering)
chain: DIQMTQSPSSLSASVGDRVTITCRASQAIDSYLHWYQQKPGKAPKLLIYSASNLETGVPSRFSGSGSGDDFTLTISSLLPEDFATYYCQQVVWRPFTFGQGTKVEIKRV[human IgG1 Fc with changes left out]

Standardized EC50, L929 neutralization assay (5-point) (recombinant human TNFα): 0.731 µg/mL
A450 (AU) [1]: 1.12 AU
B17: TNFα dAb Fc variant Y49H (Fc fusion, name in Kabat numbering)
chain: DIQMTQSPSSLSASVGDRVTITCRASQAIDSYLHWYQQKPGKAPKLLIHSASNLETGVPSRFSGSGSGTDFTLTISSLLPEDFATYYCQQVVWRPFTFGQGTKVEIKRV[human IgG1 Fc with changes left out]

Standardized EC50, L929 neutralization assay (5-point) (recombinant human TNFα): 8.98 µg/mL
A450 (AU) [1]: 1.04 AU
B19: TNFα dAb Fc variant T69K (Fc fusion, name in Kabat numbering)
chain: DIQMTQSPSSLSASVGDRVTITCRASQAIDSYLHWYQQKPGKAPKLLIYSASNLETGVPSRFSGSGSGKDFTLTISSLLPEDFATYYCQQVVWRPFTFGQGTKVEIKRV[human IgG1 Fc with changes left out]

Standardized EC50, L929 neutralization assay (5-point) (recombinant human TNFα): 2.85 µg/mL
A450 (AU) [1]: 1.02 AU
B23: TNFα dAb Fc variant T69Q (Fc fusion, name in Kabat numbering)
chain: DIQMTQSPSSLSASVGDRVTITCRASQAIDSYLHWYQQKPGKAPKLLIYSASNLETGVPSRFSGSGSGQDFTLTISSLLPEDFATYYCQQVVWRPFTFGQGTKVEIKRV[human IgG1 Fc with changes left out]

Second part, the binder before the results:

B1: TNFα dAb Fc variant P40Q (Fc fusion, name in Kabat numbering)
chain: DIQMTQSPSSLSASVGDRVTITCRASQAIDSYLHWYQQKQGKAPKLLIYSASNLETGVPSRFSGSGSGTDFTLTISSLLPEDFATYYCQQVVWRPFTFGQGTKVEIKRV[human IgG1 Fc with changes left out]
Standardized EC50, L929 neutralization assay (5-point) (recombinant human TNFα): 5.35 µg/mL
A450 (AU) [1]: 1.05 AU

B2: TNFα dAb Fc variant S60K (Fc fusion, name in Kabat numbering)
chain: DIQMTQSPSSLSASVGDRVTITCRASQAIDSYLHWYQQKPGKAPKLLIYSASNLETGVPKRFSGSGSGTDFTLTISSLLPEDFATYYCQQVVWRPFTFGQGTKVEIKRV[human IgG1 Fc with changes left out]
Standardized EC50, L929 neutralization assay (5-point) (recombinant human TNFα): 0.867 µg/mL
A450 (AU) [1]: 1.46 AU

B5: TNFα dAb Fc variant S63K (Fc fusion, name in Kabat numbering)
chain: DIQMTQSPSSLSASVGDRVTITCRASQAIDSYLHWYQQKPGKAPKLLIYSASNLETGVPSRFKGSGSGTDFTLTISSLLPEDFATYYCQQVVWRPFTFGQGTKVEIKRV[human IgG1 Fc with changes left out]
Standardized EC50, L929 neutralization assay (5-point) (recombinant human TNFα): 1.33 µg/mL
A450 (AU) [1]: 0.997 AU

B6: TNFα dAb Fc variant Q38A (Fc fusion, name in Kabat numbering)
chain: DIQMTQSPSSLSASVGDRVTITCRASQAIDSYLHWYQAKPGKAPKLLIYSASNLETGVPSRFSGSGSGTDFTLTISSLLPEDFATYYCQQVVWRPFTFGQGTKVEIKRV[human IgG1 Fc with changes left out]
Standardized EC50, L929 neutralization assay (5-point) (recombinant human TNFα): 9.11 µg/mL
A450 (AU) [1]: 0.783 AU

B7: TNFα dAb Fc variant S63Q (Fc fusion, name in Kabat numbering)
chain: DIQMTQSPSSLSASVGDRVTITCRASQAIDSYLHWYQQKPGKAPKLLIYSASNLETGVPSRFQGSGSGTDFTLTISSLLPEDFATYYCQQVVWRPFTFGQGTKVEIKRV[human IgG1 Fc with changes left out]
Standardized EC50, L929 neutralization assay (5-point) (recombinant human TNFα): 1.33 µg/mL
A450 (AU) [1]: 0.964 AU

B8: TNFα dAb Fc variant S60A (Fc fusion, name in Kabat numbering)
chain: DIQMTQSPSSLSASVGDRVTITCRASQAIDSYLHWYQQKPGKAPKLLIYSASNLETGVPARFSGSGSGTDFTLTISSLLPEDFATYYCQQVVWRPFTFGQGTKVEIKRV[human IgG1 Fc with changes left out]
Standardized EC50, L929 neutralization assay (5-point) (recombinant human TNFα): 0.176 µg/mL
A450 (AU) [1]: 1.37 AU

B9: TNFα dAb Fc variant P59H (Fc fusion, name in Kabat numbering)
chain: DIQMTQSPSSLSASVGDRVTITCRASQAIDSYLHWYQQKPGKAPKLLIYSASNLETGVHSRFSGSGSGTDFTLTISSLLPEDFATYYCQQVVWRPFTFGQGTKVEIKRV[human IgG1 Fc with changes left out]
Standardized EC50, L929 neutralization assay (5-point) (recombinant human TNFα): 0.971 µg/mL
A450 (AU) [1]: 1.26 AU

B10: TNFα dAb Fc variant P59A (Fc fusion, name in Kabat numbering)
chain: DIQMTQSPSSLSASVGDRVTITCRASQAIDSYLHWYQQKPGKAPKLLIYSASNLETGVASRFSGSGSGTDFTLTISSLLPEDFATYYCQQVVWRPFTFGQGTKVEIKRV[human IgG1 Fc with changes left out]
Standardized EC50, L929 neutralization assay (5-point) (recombinant human TNFα): 0.452 µg/mL
A450 (AU) [1]: 0.219 AU

B11: TNFα dAb Fc variant Q38H (Fc fusion, name in Kabat numbering)
chain: DIQMTQSPSSLSASVGDRVTITCRASQAIDSYLHWYQHKPGKAPKLLIYSASNLETGVPSRFSGSGSGTDFTLTISSLLPEDFATYYCQQVVWRPFTFGQGTKVEIKRV[human IgG1 Fc with changes left out]
Standardized EC50, L929 neutralization assay (5-point) (recombinant human TNFα): 1.01 µg/mL
A450 (AU) [1]: 1.1 AU

B12: TNFα dAb Fc variant Q38Y (Fc fusion, name in Kabat numbering)
chain: DIQMTQSPSSLSASVGDRVTITCRASQAIDSYLHWYQYKPGKAPKLLIYSASNLETGVPSRFSGSGSGTDFTLTISSLLPEDFATYYCQQVVWRPFTFGQGTKVEIKRV[human IgG1 Fc with changes left out]
Standardized EC50, L929 neutralization assay (5-point) (recombinant human TNFα): 5050 µg/mL
A450 (AU) [1]: 0.793 AU

B15: TNFα dAb Fc variant P44D (Fc fusion, name in Kabat numbering)
chain: DIQMTQSPSSLSASVGDRVTITCRASQAIDSYLHWYQQKPGKADKLLIYSASNLETGVPSRFSGSGSGTDFTLTISSLLPEDFATYYCQQVVWRPFTFGQGTKVEIKRV[human IgG1 Fc with changes left out]
Standardized EC50, L929 neutralization assay (5-point) (recombinant human TNFα): 802 µg/mL
A450 (AU) [1]: 0.163 AU

B18: TNFα dAb Fc variant Q38S (Fc fusion, name in Kabat numbering)
chain: DIQMTQSPSSLSASVGDRVTITCRASQAIDSYLHWYQSKPGKAPKLLIYSASNLETGVPSRFSGSGSGTDFTLTISSLLPEDFATYYCQQVVWRPFTFGQGTKVEIKRV[human IgG1 Fc with changes left out]
Standardized EC50, L929 neutralization assay (5-point) (recombinant human TNFα): 1.84 µg/mL
A450 (AU) [1]: 0.992 AU

B20: TNFα dAb Fc variant S60L (Fc fusion, name in Kabat numbering)
chain: DIQMTQSPSSLSASVGDRVTITCRASQAIDSYLHWYQQKPGKAPKLLIYSASNLETGVPLRFSGSGSGTDFTLTISSLLPEDFATYYCQQVVWRPFTFGQGTKVEIKRV[human IgG1 Fc with changes left out]
Standardized EC50, L929 neutralization assay (5-point) (recombinant human TNFα): 0.64 µg/mL
A450 (AU) [1]: 1.21 AU

B21: TNFα dAb Fc variant S65H (Fc fusion, name in Kabat numbering)
chain: DIQMTQSPSSLSASVGDRVTITCRASQAIDSYLHWYQQKPGKAPKLLIYSASNLETGVPSRFSGHGSGTDFTLTISSLLPEDFATYYCQQVVWRPFTFGQGTKVEIKRV[human IgG1 Fc with changes left out]
Standardized EC50, L929 neutralization assay (5-point) (recombinant human TNFα): 3.71 µg/mL
A450 (AU) [1]: 1.05 AU

B22: TNFα dAb Fc variant R61H (Fc fusion, name in Kabat numbering)
chain: DIQMTQSPSSLSASVGDRVTITCRASQAIDSYLHWYQQKPGKAPKLLIYSASNLETGVPSHFSGSGSGTDFTLTISSLLPEDFATYYCQQVVWRPFTFGQGTKVEIKRV[human IgG1 Fc with changes left out]
Standardized EC50, L929 neutralization assay (5-point) (recombinant human TNFα): 8.87 µg/mL
A450 (AU) [1]: 1.36 AU

B24: TNFα dAb Fc variant P40Y (Fc fusion, name in Kabat numbering)
chain: DIQMTQSPSSLSASVGDRVTITCRASQAIDSYLHWYQQKYGKAPKLLIYSASNLETGVPSRFSGSGSGTDFTLTISSLLPEDFATYYCQQVVWRPFTFGQGTKVEIKRV[human IgG1 Fc with changes left out]
Standardized EC50, L929 neutralization assay (5-point) (recombinant human TNFα): 26.7 µg/mL
A450 (AU) [1]: 1.05 AU

One block for each binder: values may come before it.
